Some of the results follow.

The assay deals with T1, OsWOX13 (Oryza sativa, UniProt Q5QMM3 1-267).
T1 sequence: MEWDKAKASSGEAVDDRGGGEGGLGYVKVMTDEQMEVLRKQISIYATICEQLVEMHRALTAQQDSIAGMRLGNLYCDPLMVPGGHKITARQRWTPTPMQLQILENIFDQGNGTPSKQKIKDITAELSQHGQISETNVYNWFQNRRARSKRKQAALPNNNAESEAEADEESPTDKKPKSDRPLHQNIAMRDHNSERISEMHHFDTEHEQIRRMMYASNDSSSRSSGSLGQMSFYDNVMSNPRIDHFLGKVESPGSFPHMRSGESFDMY
In words: protein-binding microarray (RPBM); PBS, 2% BSA, 51.3 ng/ul salmon testes DNA, 50 uM zinc acetate, 200 nM TF, 25 C, 1 h; high values mean tight binding. The conditions noted are these: protein: recombinant; tags: N-terminal polyhistidine and DsRed monomer fusion (pET32a); label: CyDye5-dUTP incorporated in the synthesized complementary strand; 3' TTTTT single-stranded linker to array surface; dsDNA, one strand shown. The gist of the method: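 For the binding signal, per-feature fluorescence intensity was read in arbitrary units on an Axon 4000B scanner. Before scanning, a 2% BSA-blocked custom Agilent array made double-stranded with Cy5-dUTP was washed after 1 h at 25 °C with 200 nM protein and 50 µM zinc acetate. The proteins were Ni–NTA-purified transcription factors with N-terminal polyhistidine and DsRed fusions, expressed in E. coli BL21-CodonPlus.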
In the case of “ATAAGTTGTTAATTAATTAAACCATTGTTTGTGGATTGTGCGGAGTCACCTAGTGCAG”, the binding signal is 25200 fluorescence intensity (a.u.). Turning to “TGATTAATTTGAGAAATTTCGAATTCTATTATTTGATGATCGGAGTCACCTAGTGCAG”, the binding signal is 31500 fluorescence intensity (a.u.). To “TCTGATGGGCGCTGGCTATCAATGTATGTCACTGTGTTGTCGGAGTCACCTAGTGCAG” belongs 6300 fluorescence intensity (a.u.). To “ATAATTAAAACTCAATTAATCACATGTTATTTCTATCTCACGGAGTCACCTAGTGCAG” belongs 19100 fluorescence intensity (a.u.); to “ACACATTAATTTAGAGGTAATAAATACAATAGATTGCATCCGGAGTCACCTAGTGCAG”, 17200 fluorescence intensity (a.u.). For the sequence “TCCAATTTCATTGGAATTAATTGTTAATCCATCCTTTGATCGGAGTCACCTAGTGCAG”, the binding signal was 14900 fluorescence intensity (a.u.). To “TAGTTCATTGATTATAGCATTGGAAGTTTGGATCCTCATTCGGAGTCACCTAGTGCAG” belongs 3990 fluorescence intensity (a.u.); to “ATACTTATAAGTTAAAATTTAAATTTTCAACATTGAATTTCGGAGTCACCTAGTGCAG”, 4290 fluorescence intensity (a.u.). As for “GCATGGTGGCGGCGGGAAGGAGGAGTGGGGCGGCGGGTGCCGGAGTCACCTAGTGCAG”, the binding signal is 5290 fluorescence intensity (a.u.).

As to “TTATAATTTACGCTGCAAATGTAGCAATCAGTCGATACTTCGGAGTCACCTAGTGCAG”, the binding signal was 16000 fluorescence intensity (a.u.).

As to “GCTGACCATTGATTGATTCCCATAATTACCTAGAGAACTTCGGAGTCACCTAGTGCAG”, the binding signal is 40600 fluorescence intensity (a.u.). Then “TAAGATAGACGGTCAAAATTGGACACGTAAATTCATGGCTCGGAGTCACCTAGTGCAG”, with 7400 fluorescence intensity (a.u.); and “GGCAGCCAAATTGACTCAGATATTTTGTTGTGTTGCTAGTCGGAGTCACCTAGTGCAG”, with 18100 fluorescence intensity (a.u.). To “CTCGTCCTGATTGCCAACGACGGCGGAGAGCTCGCCGGTGCGGAGTCACCTAGTGCAG” belongs 19100 fluorescence intensity (a.u.); to “TATTACATTTAATGAAACTAATTTGGTGTTTTAAATGCTGCGGAGTCACCTAGTGCAG”, 10600 fluorescence intensity (a.u.); to “TAAATTAATTGGGCCGTCAAACTCAGGAAAAGCCCAGTCTCGGAGTCACCTAGTGCAG”, 40800 fluorescence intensity (a.u.). To “ATAATCCCTTGCGATTTATATTGAATTAATAGTTCTTGTTCGGAGTCACCTAGTGCAG” belongs 65000 fluorescence intensity (a.u.); to “AGTCAGCTAGCTTAGTCTGATTGGCACCTAACCAACACTACGGAGTCACCTAGTGCAG”, 11400 fluorescence intensity (a.u.); to “ATGATTTGACAATGTGTTGCTACAGTAAATATTTGCTAATCGGAGTCACCTAGTGCAG”, 34700 fluorescence intensity (a.u.). In the case of “GCTCATTGAAAATAAACTGTTGGTTTCAGTTCCAAGGTCACGGAGTCACCTAGTGCAG”, the binding signal is 3410 fluorescence intensity (a.u.).

As to “GCCATCTGCTGCCGATGATTAGCGATGGATTATTATATCGCGGAGTCACCTAGTGCAG”, the binding signal is 3160 fluorescence intensity (a.u.). As for “AATTATTGATTTGATGAAACTAATTTAGTATTATAAATATCGGAGTCACCTAGTGCAG”, the binding signal is 6950 fluorescence intensity (a.u.).

As for “TTGATTGGATAATTTTGTGGTTTGGGAAGAAATGGTGATGCGGAGTCACCTAGTGCAG”, the binding signal is 64000 fluorescence intensity (a.u.).

With “ACCAGATCTACAACATTATAATTGACAATAGTTTTATTTGCGGAGTCACCTAGTGCAG”, the binding signal was 11100 fluorescence intensity (a.u.).

Consider “TTTTCCTTTGCCAATCAGGCATGAACTGAACTACCTTGTCCGGAGTCACCTAGTGCAG”, for which the binding signal is 4170 fluorescence intensity (a.u.). Then “ACAACAATTAACAGTGTACAATAATTACATACATGCACCGCGGAGTCACCTAGTGCAG”, with 19000 fluorescence intensity (a.u.). In the case of “TTTAAATAGATGATAAATAGACTTACTTATCCTTAGTCATCGGAGTCACCTAGTGCAG”, the binding signal was 24900 fluorescence intensity (a.u.).

In the case of “AAAAGCGATGATGACTGATTGAATTGAAGTTGAGGAGGTGCGGAGTCACCTAGTGCAG”, the binding signal was 23800 fluorescence intensity (a.u.).

With “GTACAATTATGTTCTTGATTCTTATATTTTGAAACGGAGGCGGAGTCACCTAGTGCAG”, the binding signal is 3290 fluorescence intensity (a.u.). To “ACCACAAACTAATTATAGGTGCATACTTTCTATTTGCGCACGGAGTCACCTAGTGCAG” belongs 6590 fluorescence intensity (a.u.); to “ACTGAAAGCCAATCAATCATATACTGAAAACCTGCTAGTTCGGAGTCACCTAGTGCAG”, 44800 fluorescence intensity (a.u.). Then “CTTTGCTTGATTACTTCCTTCGATCTTGCCCTGGTTGGTTCGGAGTCACCTAGTGCAG”, with 24900 fluorescence intensity (a.u.); and “GTTGGAACCTTAACTGATTGTGAGAGGATGTATTTCCATGCGGAGTCACCTAGTGCAG”, with 5730 fluorescence intensity (a.u.); and “ATAGTACGATTGCTCAATCAAATTGTTGGCGCTTTTAAATCGGAGTCACCTAGTGCAG”, with 8770 fluorescence intensity (a.u.). Then “CGAGAGATTGATAGATTATAATAACCCCGGGTGTACATATCGGAGTCACCTAGTGCAG”, with 41700 fluorescence intensity (a.u.). With “CTGCATTAATTACTGAAAACTTCCGAGCACTCGTTCCCACCGGAGTCACCTAGTGCAG”, the binding signal is 17700 fluorescence intensity (a.u.). Then “CACATTACAACTACCTTGATTGGAGGCTTCTCATATTATACGGAGTCACCTAGTGCAG”, with 18400 fluorescence intensity (a.u.); and “AGTTAACTGAAACTCTGAACTTTCTGAAATTTCCTCCATTCGGAGTCACCTAGTGCAG”, with 11300 fluorescence intensity (a.u.); and “CACGAGTACTTAATTAACAACTTTTATTTAACGGATGTTTCGGAGTCACCTAGTGCAG”, with 5780 fluorescence intensity (a.u.).

Consider “GTAATTATTCCATCCGTCACAATTCACAAATTACAACAACCGGAGTCACCTAGTGCAG”, for which the binding signal is 7440 fluorescence intensity (a.u.). Then “AAATATCTTAATTTGTAGCAATTCATTATAGTTGGTAAGGCGGAGTCACCTAGTGCAG”, with 5500 fluorescence intensity (a.u.).

On to “CTTTAATTATATTGGTTGCATGTATTATATTAGTTGAGATCGGAGTCACCTAGTGCAG”, for which the binding signal was 17300 fluorescence intensity (a.u.). Then “CAAGATAATGCAAATTATTTGACTATTTCTTCAATGCGTCCGGAGTCACCTAGTGCAG”, with 13800 fluorescence intensity (a.u.); and “CCTGATTTTAGGTACAATTTATCGTGTAGGAGATAATTTTCGGAGTCACCTAGTGCAG”, with 8020 fluorescence intensity (a.u.); and “ATGTGATTTCTTAATGTGAGGTTTTGATCGAACCAGCTGACGGAGTCACCTAGTGCAG”, with 21200 fluorescence intensity (a.u.).

As to “CCTCGGTGACTGGCAGGTGGTCCGAAGTCCTAACATGTGCCGGAGTCACCTAGTGCAG”, the binding signal was 5010 fluorescence intensity (a.u.). To “TTTACTAATTTATTTCCTTCTGCAAGGCGATATGCAATTGCGGAGTCACCTAGTGCAG” belongs 20700 fluorescence intensity (a.u.). Then “AAAATTAAATTTAACCATGTCATTTTATTTCTCACACTTGCGGAGTCACCTAGTGCAG”, with 27700 fluorescence intensity (a.u.). Then “ATTGATTTTATTAAGTAACTGTGTGCTAATTAATTGTTCACGGAGTCACCTAGTGCAG”, with 28300 fluorescence intensity (a.u.). Turning to “CTAATTCTTGATTAATTACCGCACTTAGTCACGCCAAGACCGGAGTCACCTAGTGCAG”, the binding signal is 36700 fluorescence intensity (a.u.). Then “AAATTAAATTTTATTTGTTGAAAATAATATCATTGGATTGCGGAGTCACCTAGTGCAG”, with 6020 fluorescence intensity (a.u.). Then “ACACCCTAATTTGTTGATTTAGCCACATTCGTATAGGAACCGGAGTCACCTAGTGCAG”, with 30200 fluorescence intensity (a.u.). Then “GCCTTCATGCATAGAGACGTGATTAGTGGTTAATTAGTGGCGGAGTCACCTAGTGCAG”, with 7600 fluorescence intensity (a.u.); and “ATTAATCTGCAGATTTCCATGATTGGTGGTGGAGTTCATCCGGAGTCACCTAGTGCAG”, with 11800 fluorescence intensity (a.u.).

The values are drawn from PMC7819943, “Rice protein-binding microarrays: a tool to detect cis-acting elements near promoter regions in rice”.
